Test results: the supplement of paper PMC8728848
The other results are listed elsewhere or left out.

Key:
Test in all cases: glycan array binding signal (z-score within array); higher = stronger binding
Conditions in all cases: glycan notation: IUPAC condensed, linker removed
[1] = target: Fuc(a1-2)Gal
Outline: (§1)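 Arrays were curated from the Consortium for Functional Glycomics database, 3228 in total, and kept only where the protein sequence was available. Binding is expressed as a within-array Z-score. This score was averaged across arrays of the same protein sequence at different concentrations or buffers and across linkers, and negative values can be read as non-binding.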

[2] = target: Fuc(a1-2)Gal(b1-3)GalNAc
Outline: as §1

[3] = target: Fuc(a1-2)Gal(b1-3)GalNAc(a1-3)[Fuc(a1-2)]Gal(b1-4)Glc
Outline: as §1

[4] = target: Fuc(a1-2)Gal(b1-3)GalNAc(a1-3)[Fuc(a1-2)]Gal(b1-4)GlcNAc
Outline: as §1

[5] = target: Fuc(a1-2)Gal(b1-3)GalNAc(b1-3)Gal
Outline: as §1

[6] = target: Fuc(a1-2)Gal(b1-3)GalNAc(b1-3)Gal(a1-4)Gal(b1-4)Glc
Outline: as §1

[7] = target: Fuc(a1-2)Gal(b1-3)GalNAc(b1-4)[Neu5Ac(a2-3)]Gal(b1-4)Glc
Outline: as §1

[8] = target: Fuc(a1-2)Gal(b1-3)GlcNAc
Outline: as §1

[9] = target: Fuc(a1-2)Gal(b1-3)GlcNAc(b1-2)Man(a1-3)[Fuc(a1-2)Gal(b1-3)GlcNAc(b1-2)Man(a1-6)]Man(b1-4)GlcNAc(b1-4)GlcNAc
Outline: as §1

[10] = target: Fuc(a1-2)Gal(b1-3)GlcNAc(b1-2)Man(a1-3)[Fuc(a1-2)Gal(b1-3)GlcNAc(b1-2)Man(a1-6)]Man(b1-4)GlcNAc(b1-4)[Fuc(a1-6)]GlcNAc
Outline: as §1

[11] = target: Fuc(a1-2)Gal(b1-3)GlcNAc(b1-3)Gal(b1-4)Glc
Outline: as §1

[12] = target: Fuc(a1-2)Gal(b1-3)GlcNAc(b1-3)GalNAc
Outline: as §1

[13] = target: Fuc(a1-2)Gal(b1-3)GlcNAc(b1-3)[Fuc(a1-2)Gal(b1-3)GlcNAc(b1-6)]GalNAc
Outline: as §1

[14] = target: Fuc(a1-2)Gal(b1-3)GlcNAc(b1-3)[Gal(b1-4)GlcNAc(b1-6)]Gal(b1-4)Glc
Outline: as §1

[15] = target: Fuc(a1-2)Gal(b1-3)GlcNAc(b1-3)[Neu5Ac(a2-6)Gal(b1-4)GlcNAc(b1-6)]Gal(b1-4)Glc
Outline: as §1

[16] = target: Fuc(a1-2)Gal(b1-3)GlcNAc6S
Outline: as §1

[17] = target: Fuc(a1-2)Gal(b1-3)[Fuc(a1-4)]GlcNAc
Outline: as §1

[18] = target: Fuc(a1-2)Gal(b1-3)[Fuc(a1-4)]GlcNAc(b1-2)Man(a1-3)[Fuc(a1-2)Gal(b1-3)[Fuc(a1-4)]GlcNAc(b1-2)Man(a1-3)]Man(b1-4)GlcNAc(b1-4)GlcNAc
Outline: as §1

[19] = target: Fuc(a1-2)Gal(b1-3)[Fuc(a1-4)]GlcNAc(b1-2)Man(a1-3)[Fuc(a1-2)Gal(b1-3)[Fuc(a1-4)]GlcNAc(b1-2)Man(a1-6)]Man(b1-4)GlcNAc(b1-4)[Fuc(a1-6)]GlcNAc(b1-4)[Fuc(a1-6)]GlcNAc
Outline: as §1

[20] = target: Fuc(a1-2)Gal(b1-3)[Fuc(a1-4)]GlcNAc(b1-3)[Fuc(a1-3)[Gal(b1-4)]GlcNAc(b1-6)]Gal(b1-4)Glc
Outline: as §1

[21] = target: Fuc(a1-2)Gal(b1-3)[Fuc(a1-4)]GlcNAc(b1-3)[Gal(b1-4)GlcNAc(b1-6)]Gal(b1-4)Glc
Outline: as §1

[22] = target: Fuc(a1-2)Gal(b1-4)Fuc(a1-3)]GlcNAc(b1-2)Man(a1-3)[Fuc(a1-2)Gal(b1-4)[Fuc(a1-3)]GlcNAc(b1-2)Man(a1-6)]Man(b1-4)GlcNAc(b1-4)GlcNAc
Outline: as §1

[23] = target: Fuc(a1-2)Gal(b1-4)Glc
Outline: as §1

[24] = target: Fuc(a1-2)Gal(b1-4)Glc6S
Outline: as §1

[25] = target: Fuc(a1-2)Gal(b1-4)GlcNAc
Outline: as §1

[26] = target: Fuc(a1-2)Gal(b1-4)GlcNAc(b1-2)Man
Outline: as §1

[27] = target: Fuc(a1-2)Gal(b1-4)GlcNAc(b1-2)Man(a1-3)[Fuc(a1-2)Gal(b1-4)GlcNAc(b1-2)Man(a1-6)]Man(b1-4)GlcNAc(b1-4)GlcNAc
Outline: as §1

[28] = target: Fuc(a1-2)Gal(b1-4)GlcNAc(b1-2)Man(a1-3)[Fuc(a1-2)Gal(b1-4)GlcNAc(b1-2)Man(a1-6)]Man(b1-4)GlcNAc(b1-4)[Fuc(a1-6)]GlcNAc
Outline: as §1

[29] = target: Fuc(a1-2)Gal(b1-4)GlcNAc(b1-2)[Fuc(a1-2)Gal(b1-4)GlcNAc(b1-4)]Man(a1-3)[Fuc(a1-2)Gal(b1-4)GlcNAc(b1-2)Man(a1-6)]Man(b1-4)GlcNAc(b1-4)GlcNAc
Outline: as §1

[30] = target: Fuc(a1-2)Gal(b1-4)GlcNAc(b1-3)Gal(b1-4)GlcNAc
Outline: as §1

[31] = target: Fuc(a1-2)Gal(b1-4)GlcNAc(b1-3)Gal(b1-4)GlcNAc(b1-2)Man(a1-3)[Fuc(a1-2)Gal(b1-4)GlcNAc(b1-3)Gal(b1-4)GlcNAc(b1-2)Man(a1-6)]Man(b1-4)GlcNAc(b1-4)GlcNAc
Outline: as §1

[32] = target: Fuc(a1-2)Gal(b1-4)GlcNAc(b1-3)Gal(b1-4)GlcNAc(b1-3)Gal(b1-4)GlcNAc
Outline: as §1

[33] = target: Fuc(a1-2)Gal(b1-4)GlcNAc(b1-3)GalNAc
Outline: as §1

[34] = target: Fuc(a1-2)Gal(b1-4)GlcNAc(b1-3)[Fuc(a1-2)Gal(b1-4)GlcNAc(b1-6)]GalNAc
Outline: as §1

[35] = target: Fuc(a1-2)Gal(b1-4)GlcNAc(b1-3)[Fuc(a1-3)[Gal(b1-4)]GlcNAc(b1-6)]Gal(b1-4)Glc
Outline: as §1

[36] = target: Fuc(a1-2)Gal(b1-4)GlcNAc(b1-6)GalNAc
Outline: as §1

[37] = target: Fuc(a1-2)Gal(b1-4)GlcNAc6S
Outline: as §1

B1: mCC1-Hexahis-Precomplexed (Mus musculus), P31809 (protein)
chain: MELASAHLHKGQVPWGGLLLTASLLASWSPATTAEVTIEAVPPQVAEDNNVLLLVHNLPLALGAFAWYKGNTTAIDKEIARFVPNSNMNFTGQAYSGREIIYSNGSLLFQMITMKDMGVYTLDMTDENYRRTQATVRFHVHPILLKPNITSNNSNPVEGDDSVSLTCDSYTDPDNINYLWSRNGESLSEGDRLKLSEGNRTLTLLNVTRNDTGPYVCETRNPVSVNRSDPFSLNIIYGPDTPIISPSDIYLHPGSNLNLSCHAASNPPAQYFWLINEKPHASSQELFIPNITTNNSGTYTCFVNNSVTGLSRTTVKNITVLEPVTQPFLQVTNTTVKELDSVTLTCLSNDIGANIQWLFNSQSLQLTERMTLSQNNSILRIDPIKREDAGEYQCEISNPVSVRRSNSIKLDIIFDPTQGGLSDGHHHHHH
- glycan array binding signal (z-score) [1]: -0.259
- glycan array binding signal (z-score) [2]: -0.158
- glycan array binding signal (z-score) [3]: -0.101
- glycan array binding signal (z-score) [4]: -0.214
- glycan array binding signal (z-score) [5]: -0.135
- glycan array binding signal (z-score) [6]: -0.267
- glycan array binding signal (z-score) [7]: -0.199
- glycan array binding signal (z-score) [8]: -0.229
- glycan array binding signal (z-score) [9]: 0.072
- glycan array binding signal (z-score) [10]: -0.146
- glycan array binding signal (z-score) [11]: -0.182
- glycan array binding signal (z-score) [12]: -0.245
- glycan array binding signal (z-score) [13]: -0.141
- glycan array binding signal (z-score) [14]: -0.302
- glycan array binding signal (z-score) [15]: -0.125
- glycan array binding signal (z-score) [16]: 0.07
- glycan array binding signal (z-score) [17]: -0.166
- glycan array binding signal (z-score) [18]: 0.048
- glycan array binding signal (z-score) [19]: 0.069
- glycan array binding signal (z-score) [20]: -0.173
- glycan array binding signal (z-score) [21]: -0.075
- glycan array binding signal (z-score) [22]: 0.152
- glycan array binding signal (z-score) [23]: -0.182
- glycan array binding signal (z-score) [24]: -0.226
- glycan array binding signal (z-score) [25]: -0.269
- glycan array binding signal (z-score) [26]: -0.232
- glycan array binding signal (z-score) [27]: 0.061
- glycan array binding signal (z-score) [28]: 0.228
- glycan array binding signal (z-score) [29]: 0.23
- glycan array binding signal (z-score) [30]: -0.283
- glycan array binding signal (z-score) [31]: -0.129
- glycan array binding signal (z-score) [32]: -0.228
- glycan array binding signal (z-score) [33]: -0.208
- glycan array binding signal (z-score) [34]: -0.018
- glycan array binding signal (z-score) [35]: -0.163
- glycan array binding signal (z-score) [36]: 0.015
- glycan array binding signal (z-score) [37]: -0.259
